PubChem BioAssay AID504832 (National Center for Advancing Translational Sciences (NCATS), 2011)
Where “and” joins values, the source holds several entries; their conditions need not be identical. Equal values may be shown once. The campaign covered roughly 310,000 compounds. About 18,000 (5.8%) were called active. Inconclusive means that the source gave no clear call. Such entries were picked first, then a sample of the others. Calls follow the shape of the dose curve; as a rule, active = well fitted inhibition curve with a large enough effect; inconclusive = small, poorly fitted or top-dose-only effect, or another doubt; inactive = no such curve, though single readings can be large or run the other way. A potency beside an inconclusive call is a rough fit, not a confirmed value.

Assay: Primary qHTS for delayed death inhibitors of the malarial parasite plastid, 48 hour incubation
Conditions: P. falciparum luciferase growth in erythrocytes; series mostly up to 28.7 µM; activity change, negative = inhibition: at the top concentration
How it was run: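 Here the parasites carry a stable luciferase gene and grow inside erythrocytes in Albumax-based RPMI medium with compound for one erythrocytic cycle. Activity is scored as loss of luminescent signal.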
% is scaled to controls: 0 for no effect and ±100 for the full control effect; potency is read from the fitted curve at half-maximal effect; tags tell the direction and shape of the fitted curve.

Row | Compound | Potency | activity change, negative = inhibition
1 | CC1(C)C2CCC1(C)C(OC(=O)c1ccccc1C(=O)O)C2 (stereo unspecified) | inconclusive: 2.33 µM [inhibitor, single point] | –
2 | COc1ccc(NC(=O)c2cccc(S(=O)(=O)N3CCCCCC3)c2)cc1 | inconclusive: 4.65 µM [inhibitor, partial curve, poor fit] | –
3 | C[C@H]1[C@H](C)CC[C@]2(C)CC[C@]3(C)C(=CC(=O)C4[C@@]5(C)CC[C@H](O)C(C)(C)C5CC[C@]43C)[C@H]12 (stereo partly specified) | inconclusive: 3.7 µM [inhibitor, full curve] | –
4 | CCc1noc(C)c1C(=O)Nc1nc(-c2ccc(OC)cc2OC)cs1 | active: 2.33 µM | –
5 | Cc1ccc(C)c(Sc2ccc(NC(=O)CCN3C(=O)NC4(CCCC4)C3=O)cc2)c1 | – | inactive: -25.1%
6 | CCC1(C)Cc2ccccc2-c2nc3n(c(=O)c21)CCS3 (stereo unspecified) | inconclusive: 0.037 µM [inhibitor, full curve, poor fit] | –
7 | Cc1c(N=C(N)/N=C(\N)Nc2ccc(Br)cc2)c(=O)n(-c2ccccc2)n1C | inconclusive: 1.65 µM [inhibitor, partial curve] | –
8 | COc1ccc(C(C)=O)cc1CSc1ncccn1 | – | inactive: 0%
9 | CCOC(=O)C1CCN(Cc2cc(Cl)c3ccccc3c2O)CC1 | active: 1.17 µM | –
10 | O=C(Cc1cccs1)NCc1cccs1 | – | inactive: 15.6%
11 | Cc1ccc(N2CC(C(=O)Nc3nc4ccc(S(C)(=O)=O)cc4s3)CC2=O)cc1C (stereo unspecified) | – | inactive: 1.46%
12 | CC(=O)N1CCN(Cc2nc3cc(NC(=O)C4CCCCC4)ccc3n2C)CC1 | – | inactive: -22.8%
13 | CCN1CC(CN(C)Cc2cn(-c3ccc(C)cc3)nc2-c2cccc(C)c2)CC1=O (stereo unspecified) | active: 10.4 µM | –
14 | COc1ccc(NC(=O)COc2ccccc2)cc1Cl | – | inactive: 5.78%
15 | COc1ccccc1NS(=O)(=O)c1ccc2[nH]c(=O)[nH]c2c1 | – | inactive: 7.92%
16 | Cc1ccc(N(CC(=O)NCC2CCCO2)S(C)(=O)=O)cc1Cl (stereo unspecified) | – | inactive: 0.521%
17 | O=C(O)CCNC(=O)c1ccc(Br)o1 | inconclusive: 18.5 µM [inhibitor, single point] | –
18 | CC1CCc2sc3ncnc(N4CCN(C)CC4)c3c2C1 (stereo unspecified) | inconclusive: 18.5 µM [inhibitor, single point] | –
19 | C/C(=N\Nc1nnc2c3ccccc3n(C)c2n1)c1ccc(C)o1 | inconclusive: 18.5 µM [inhibitor, single point] | –
20 | O=C(c1ccc(NC(=O)C2(c3ccccc3)CCOCC2)cc1)N1CCOCC1 | – | inactive: -3.12%
21 | COc1ccc(N2CC(C)Cn3c2nc2c3c(=O)n(Cc3ccccc3)c(=O)n2C)c(OC)c1 (stereo unspecified) | inconclusive: 10.4 µM [inhibitor, partial curve, poor fit] | –
22 | [O]=[Cr](=[O])([OH])[O][Cr](=[O])(=[O])[OH] | inconclusive: 9.53 µM [inhibitor, partial curve] and inconclusive: 19 µM [inhibitor, single point] | –
23 | CCn1c2ccccc2c2cc(NC(=O)COC(=O)c3cc(S(=O)(=O)N4CCCCC4)ccc3Cl)ccc21 | – | inactive: 32.1%
24 | CNc1nc(SCc2ccc(C)cc2)nc2c1CCCC2 | active: 7.38 µM | –

Row | Compound | Potency | activity change, negative = inhibition
25 | Cn1c(=O)c2c(nc(NCc3ccc4c(c3)OCO4)n2Cc2ccccc2F)n(C)c1=O | inconclusive: 18.5 µM [inhibitor, single point] | –
26 | COc1cc2nc(N(C)CCCNC(=O)[C@@H]3CCCO3)nc(N)c2cc1OC | – | inactive: -6.62% [at 12.8 µM]
27 | O=C(O)c1ccccc1-c1ccccc1C(=O)Nc1ccccc1 | – | inactive: 50.8%
28 | O=C(CN1CCN(S(=O)(=O)c2ccc(Cl)cc2)CC1)Nc1ccc2c(c1)OCCO2 | inconclusive: 18.5 µM [inhibitor, single point] | –
29 | COc1ccc([C@H]2CC(=O)C=C(c3cccc(Br)c3)C2)cc1 | inconclusive: 1.17 µM [inhibitor, partial curve, poor fit] | –
30 | CCc1nc(N2CCN(CC(=O)NCC3CCCO3)CC2)c(C#N)c2c1COC(C)(C)C2 (stereo unspecified) | inconclusive: 14.7 µM [inhibitor, partial curve, poor fit] | –
31 | CC(C)(C)C(=O)Nc1ccc(N2CCN(c3ccc(C(F)(F)F)cn3)CC2)nc1 | inconclusive: 0.147 µM [inhibitor, full curve, poor fit] | –
32 | NC(=O)COC(=O)c1cccnc1Nc1ccccc1F | – | inactive: 4.17%
33 | O=C(N[C@@H](Cc1ccccc1)C(=O)NC1CC1)c1ccc(Cl)cc1 | inconclusive: 18.5 µM [inhibitor, single point] | –
34 | CC(=O)Nc1ccc(S(=O)(=O)NCC(=O)OCC(=O)N2CCCCCC2)cc1 | – | inactive: 11.2%
35 | CSC(=NCc1cccnc1)NS(=O)(=O)c1cccs1 | – | inactive: 6.59%
36 | CCC(C)NC(=O)c1cn(CC)c2cc(N3CCN(C(=O)c4ccco4)CC3)c(F)cc2c1=O (stereo unspecified) | active: 5.86 µM | –
37 | Cc1[nH]n(-c2ccccc2)c(=O)c1C(C[N+](=O)[O-])c1ccc(F)cc1 (stereo unspecified) | inconclusive: 16.5 µM [inhibitor, partial curve, poor fit] | –
38 | CCCn1c(SCc2ccc(Cl)cc2)nc2c1c(=O)[nH]c(=O)n2C | inconclusive: 0.208 µM [inhibitor, full curve, poor fit] | –
39 | COc1cc(C(CC(=O)N2CCN(c3ccccc3)CC2)c2c(OC)cc(OC)c3ccc(=O)oc23)cc(OC)c1OC (stereo unspecified) | active: 5.86 µM | –
40 | O=C(Nc1ccc(S(=O)(=O)N2CCCCCC2)cc1)c1ccco1 | inconclusive: 18.5 µM [inhibitor, single point] | –
41 | CCCCOCCCn1c(-c2ccco2)nc2nc3ccccc3nc21 | inconclusive: 11.7 µM [inhibitor, single point] | –
42 | CCN(CC(=O)Nc1ccccc1OC)CC(=O)Nc1ccccc1-c1ccccc1 | inconclusive: 10.4 µM [inhibitor, single point] | –
43 | CCC(=O)N(CCc1ccccc1)Cc1cc2cccc(C)c2[nH]c1=O | – | inactive: 2.86%
44 | Cc1ccccc1NC(=O)Cc1nc(COC(=O)Cc2ccccc2)cs1 | inconclusive: 11.7 µM [inhibitor, single point] | –
45 | COc1ccc(CCN2C(=O)CC(Sc3ncccc3C(=O)O)C2=O)cc1OC (stereo unspecified) | – | inactive: 0.586%
46 | CCNC(=O)OCc1cn(-c2ccc(Cl)cc2)nn1 | inconclusive: 18.5 µM [inhibitor, single point] | –
47 | Cc1ccc(CNC(=O)c2ccc(N3CCC4(CC3)CC(c3cccc(Br)c3)=NO4)c(N)c2)cc1 | inconclusive: 14.7 µM [inhibitor, single point] | –
48 | CC(C)(C)c1nc2cc(Cl)c([N+](=O)[O-])cc2o1 | – | inactive: 11.4%

Row | Compound | Potency | activity change, negative = inhibition
49 | CCOC(=O)c1oc2cccc(OCC(O)CNC(C)C)c2c1C (stereo unspecified) | active: 9.28 µM | –
50 | COc1ccc(/C=C2\SC(=S)N(CC(=O)N(C)C3CCS(=O)(=O)C3)C2=O)cc1 (stereo unspecified) | – | inactive: 1.23%
51 | CC(C)Cc1nc2c(nnn2Cc2ccccc2F)c(=O)[nH]1 | inconclusive: 0.828 µM [inhibitor, full curve] | –
52 | Cc1ccccc1NC(=O)CSc1nnc(C)c(=O)[nH]1 | inconclusive: 0.0657 µM [inhibitor, full curve, poor fit] | –
53 | O=C(Nc1ccccc1C(=O)N1CCCCC1)c1ccccc1C(F)(F)F | inconclusive: 18.5 µM [inhibitor, single point] | –
54 | N#Cc1ccc2c(c1)C[C@]1(CCCCN3C(=O)c4ccccc4C3=O)OC3=C(C(=O)OC4(CCCCC4)C3)C2O1 | inconclusive: 1.69 µM [inhibitor, single point] | –
55 | COc1ccc(-c2coc3c(CN4CCOCC4)c(O)ccc3c2=O)cc1 | inconclusive: 13.1 µM [inhibitor, single point] | –
56 | Cc1ccc(Cn2ccc(NC(=O)c3cc(-c4ccccc4)on3)n2)cc1 | active: 9.28 µM | –
57 | CN(C)C(CNC(=O)CSc1nc2ccccc2c(=O)n1Cc1ccco1)c1ccccc1 (stereo unspecified) | inconclusive: 13.1 µM [inhibitor, single point] | –
58 | OCC1(CCOc2ccccc2)CCN(Cc2nc3ccc(F)cc3[nH]2)CC1 | inconclusive: 9.28 µM [inhibitor, partial curve] | –
59 | COc1ccc(-c2nc3ccccc3nc2-c2ccc(OC)c(OC)c2)cc1OC | inconclusive: 0.928 µM [inhibitor, full curve, poor fit] | –
60 | CC(=O)N1CCN(c2ccc(NC(=O)/C=C/c3ccccc3)cc2)CC1 | inconclusive: 9.28 µM [inhibitor, single point] | –
61 | Cc1ccccc1N1CCN(c2ccc(NC(=O)C3CCCCC3C(=O)O)cc2)CC1 (stereo unspecified) | – | inactive: 3.41%
62 | CC(C)n1c(O)c(/C=C2\C=NN=C2c2ccccc2)sc1=S | inconclusive: 18.5 µM [inhibitor, single point] | –
63 | O=C1NC(=Nc2cccnc2)S/C1=C\c1cccc(F)c1 | – | inactive: 22.4%
64 | CCOC(=O)C1(CCCc2ccccc2)CCN(C(=O)C2CCCO2)CC1 (stereo unspecified) | inconclusive: 4.65 µM [inhibitor, partial curve, poor fit] | –
65 | c1ccc(CN(Cc2ccccc2)c2c3c(nc4ncnn24)CCC3)cc1 | inconclusive: 14.7 µM [inhibitor, partial curve] | –
66 | C=CCSc1nnc(NC(=O)CN2C(=O)NC3(CCCC3)C2=O)s1 | – | inactive: 13.6%
67 | COc1cccc(C2CC(c3cccc(NS(C)(=O)=O)c3)=NN2C(=O)c2ccccc2)c1OC (stereo unspecified) | active: 1.85 µM | –
68 | CN(C)C(=O)c1ccc(-c2n[nH]c(=O)c3ccccc23)cc1 | – | inactive: 2.84%
69 | CC(C)C(OC(=O)CN1C(=O)COc2ccccc21)C(=O)NC1CCCCC1 (stereo unspecified) | inconclusive: 13.1 µM [inhibitor, partial curve, poor fit] | –
70 | COc1cccc(Nc2nnc(SCC(=O)N3CC(C)OC(C)C3)s2)c1 (stereo unspecified) | inconclusive: 11.7 µM [inhibitor, partial curve] | –
71 | Cc1cccc(OCC(=O)NCCCNC(=O)c2ccncc2)c1 | – | inactive: -11.4%
